Assay results: the supplement of paper PMC8728848
This is one part of the list.

What was measured:
Assay in all cases: glycan array binding signal (z-score within array); higher = stronger binding
Settings in all cases: glycan notation: IUPAC condensed, linker removed
GlcNAc(b1-3)Man = molecular target: GlcNAc(b1-3)Man
Outline: (§1)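 Columns mapping to the same glycan were averaged after glycan names were converted to IUPAC-condensed notation. The data come from 3228 arrays in the Consortium for Functional Glycomics database, limited to those with an available protein sequence. Binding is reported as a within-array Z-score averaged across arrays of one protein sequence and across linkers.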

[1] = molecular target: GlcNAc(b1-3)[GlcNAc(b1-4)][GlcNAc(b1-6)]GlcNAc
Outline: as §1

[2] = molecular target: GlcNAc(b1-3)[GlcNAc(b1-6)]Gal(b1-4)GlcNAc
Outline: as §1

[3] = molecular target: GlcNAc(b1-3)[GlcNAc(b1-6)]GalNAc
Outline: as §1

[4] = molecular target: GlcNAc(b1-4)Gal(b1-4)GlcNAc
Outline: as §1

GlcNAc(b1-4)GlcNAc = molecular target: GlcNAc(b1-4)GlcNAc
Outline: as §1

[5] = molecular target: GlcNAc(b1-4)GlcNAc(b1-4)GlcNAc
Outline: as §1

[6] = molecular target: GlcNAc(b1-4)GlcNAc(b1-4)GlcNAc(b1-4)GlcNAc(b1-4)GlcNAc
Outline: as §1

[7] = molecular target: GlcNAc(b1-4)GlcNAc(b1-4)GlcNAc(b1-4)GlcNAc(b1-4)GlcNAc(b1-4)GlcNAc
Outline: as §1

[8] = molecular target: GlcNAc(b1-4)[GlcNAc(b1-6)]GalNAc
Outline: as §1

[9] = molecular target: GlcNAc(b1-6)Gal(b1-4)GlcNAc
Outline: as §1

GlcNAc(b1-6)GalNAc = molecular target: GlcNAc(b1-6)GalNAc
Outline: as §1

[10] = molecular target: GlcNAc6S(b1-3)Gal(b1-4)GlcNAc
Outline: as §1

Kdn(a2-3)Gal(b1-3)GalNAc = molecular target: Kdn(a2-3)Gal(b1-3)GalNAc
Outline: as §1

Kdn(a2-3)Gal(b1-3)GlcNAc = molecular target: Kdn(a2-3)Gal(b1-3)GlcNAc
Outline: as §1

Kdn(a2-3)Gal(b1-4)Glc = molecular target: Kdn(a2-3)Gal(b1-4)Glc
Outline: as §1

Kdn(a2-3)Gal(b1-4)GlcNAc = molecular target: Kdn(a2-3)Gal(b1-4)GlcNAc
Outline: as §1

[11] = molecular target: Kdn(a2-3)Gal(b1-4)[Fuc(a1-3)]GlcNAc
Outline: as §1

Kdn(a2-6)Gal(b1-4)GlcNAc = molecular target: Kdn(a2-6)Gal(b1-4)GlcNAc
Outline: as §1

[12] = molecular target: Man(a1-2)Man(a1-2)Man(a1-3)Man
Outline: as §1

[13] = molecular target: Man(a1-2)Man(a1-2)Man(a1-6)[Man(a1-3)]Man
Outline: as §1

Man(a1-2)Man(a1-3)Man = molecular target: Man(a1-2)Man(a1-3)Man
Outline: as §1

[14] = molecular target: Man(a1-2)Man(a1-3)[Man(a1-2)Man(a1-6)]Man
Outline: as §1

B1: rCnSL-A (Clitocybe nebularis) (protein)
chain: VNPNLPGPNDVFVGFRGTNNIVGAIYEKDGIKDTPLNNGADAEMGPGSYITDGLFTARIFASGSAGNNPGTTATVCKIYASGVQWRGAPKGYIPVAYFGNGPTAEQRRQTYLRTLGLPGTAIRFGNLNTNPGQGPTAPRQMVVPPGPLRSLLKASCFPAADTRLPQTLHYFEKRVDWNIITAADSQTWGH
GlcNAc(b1-3)Man
  glycan array binding signal (z-score): -0.175
[1]
  glycan array binding signal (z-score): -0.22
[2]
  glycan array binding signal (z-score): -0.298
[3]
  glycan array binding signal (z-score): -0.281
[4]
  glycan array binding signal (z-score): -0.092
GlcNAc(b1-4)GlcNAc
  glycan array binding signal (z-score): -0.208
[5]
  glycan array binding signal (z-score): -0.201
[6]
  glycan array binding signal (z-score): -0.217
[7]
  glycan array binding signal (z-score): -0.232
[8]
  glycan array binding signal (z-score): -0.237
[9]
  glycan array binding signal (z-score): -0.21
GlcNAc(b1-6)GalNAc
  glycan array binding signal (z-score): -0.235
[10]
  glycan array binding signal (z-score): -0.018
Kdn(a2-3)Gal(b1-3)GalNAc
  glycan array binding signal (z-score): -0.16
Kdn(a2-3)Gal(b1-3)GlcNAc
  glycan array binding signal (z-score): -0.287
Kdn(a2-3)Gal(b1-4)Glc
  glycan array binding signal (z-score): -0.222
Kdn(a2-3)Gal(b1-4)GlcNAc
  glycan array binding signal (z-score): -0.225
[11]
  glycan array binding signal (z-score): -0.25
Kdn(a2-6)Gal(b1-4)GlcNAc
  glycan array binding signal (z-score): -0.218
[12]
  glycan array binding signal (z-score): -0.24
[13]
  glycan array binding signal (z-score): -0.17
Man(a1-2)Man(a1-3)Man
  glycan array binding signal (z-score): -0.212
[14]
  glycan array binding signal (z-score): -0.269
